Values of other authors, collected in publication PMC11006913.
The list shows a part of the results.

Legend:
Conditions in all cases: PBM; conditions not shown; double strand, one strand shown; scale: upbm affinity estimate (log intensity, higher = more binding, comparable within an allelic series)
[1] = molecular target: NKX2-5 K183E (Homo sapiens) (UniProt P52952)
[2] = molecular target: NKX2-5 R161P (Homo sapiens) (UniProt P52952)
[3] = molecular target: NKX2-5 R190C (Homo sapiens) (UniProt P52952)
[4] = molecular target: PITX2 R108H (Homo sapiens) (UniProt Q99697)
[5] = molecular target: PITX2 R130W (Homo sapiens) (UniProt Q99697)
[6] = molecular target: PITX2 T114P (Homo sapiens) (UniProt Q99697)
[7] = molecular target: PITX2 L100Q (Homo sapiens) (UniProt Q99697)

In the case of GTAATTAC [8-mer GTAATTAC], the binding signal [1] is listed as 11.5, the binding signal [2] is listed as 12.1 and the binding signal [3] is listed as 11.4.
In the case of CAATTAGC [8-mer CAATTAGC], the binding signal [4] is listed as 8.6, the binding signal [5] is listed as 8.59 and the binding signal [6] is listed as 8.67.
For ATAATTGG [8-mer ATAATTGG], the binding signal [1] is given as 11.4.
For ACCAATTA [8-mer ACCAATTA], the binding signal [1] is given as 11.5.
In the case of AATTAATC [8-mer AATTAATC], the binding signal [7] is given as 11.3, the binding signal [4] is given as 9.6 and the binding signal [5] is given as 8.72. The binding signal [6] was 9.91.
In the case of CCGCGTCG [8-mer CCGCGTCG], the binding signal [7] is listed as 8.18, the binding signal [4] is listed as 8.06 and the binding signal [5] is listed as 8.01. The binding signal [6] was 8.1.
For ATTAATCA [8-mer ATTAATCA], the binding signal [7] is listed as 10.8, the binding signal [4] is listed as 9.27 and the binding signal [5] is listed as 8.79. The binding signal [6] was 9.46.
For GCTCGGCC [8-mer GCTCGGCC], the binding signal [7] is given as 8.11, the binding signal [4] is given as 7.92 and the binding signal [5] is given as 7.85. For the same sequence, the binding signal [6] was 7.95.
In the case of CGACCTCG [8-mer CGACCTCG], the binding signal [1] is listed as 10.2, the binding signal [2] is listed as 10.3 and the binding signal [3] is listed as 10.2.
In the case of CCGGCGCA [8-mer CCGGCGCA], the binding signal [7] is listed as 8.17, the binding signal [4] is listed as 7.93 and the binding signal [5] is listed as 7.82. The binding signal [6] was 7.93.
